In PubChem BioAssay AID1347165 (National Center for Advancing Translational Sciences (NCATS), 2019):
The whole screen tested about 220,000 compounds, of which about 5,700 (2.6%) were called active. The shares of active, inactive and inconclusive entries below differ from those in the screen. Calls follow the shape of the dose curve; as a rule, active = well fitted inhibition curve with a large enough effect; inconclusive = small, poorly fitted or top-dose-only effect; inactive = no such curve, though single readings can be large or run the other way. Where the call is inconclusive, the potency comes from a doubtful curve fit.

Molecular target: Lysine-specific demethylase 5B (Homo sapiens) (UniProt Q9UGL1)
Assay: Primary screen for KDM5B Histone Demethylases FDH-coupled qHTS; also: nearly all actives have a fitted effect of over 70% in size; as to activity change, negative = inhibition: 0% is about no effect
Conditions: FDH-coupled NADH fluorescence (FDH is formaldehyde dehydrogenase); activity change, negative = inhibition: at 57.7 µM (top of the series) unless noted
Summary of the method: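 Inhibition is measured as reduced NADH fluorescence generation from FDH coupling to formaldehyde release. Truncated KDM5BΔAP at 200 nM final acts on H3K4me3 peptide (12.5 µM in substrate mix) in pH 7.5 HEPES buffer with Tween-20, 30 min, room temperature.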
Potency is read from the fitted curve at half-maximal effect; tags tell the direction and shape of the fitted curve.

Sequence of UniProt Q9UGL1 (Q9UGL1 whole entry, looked up): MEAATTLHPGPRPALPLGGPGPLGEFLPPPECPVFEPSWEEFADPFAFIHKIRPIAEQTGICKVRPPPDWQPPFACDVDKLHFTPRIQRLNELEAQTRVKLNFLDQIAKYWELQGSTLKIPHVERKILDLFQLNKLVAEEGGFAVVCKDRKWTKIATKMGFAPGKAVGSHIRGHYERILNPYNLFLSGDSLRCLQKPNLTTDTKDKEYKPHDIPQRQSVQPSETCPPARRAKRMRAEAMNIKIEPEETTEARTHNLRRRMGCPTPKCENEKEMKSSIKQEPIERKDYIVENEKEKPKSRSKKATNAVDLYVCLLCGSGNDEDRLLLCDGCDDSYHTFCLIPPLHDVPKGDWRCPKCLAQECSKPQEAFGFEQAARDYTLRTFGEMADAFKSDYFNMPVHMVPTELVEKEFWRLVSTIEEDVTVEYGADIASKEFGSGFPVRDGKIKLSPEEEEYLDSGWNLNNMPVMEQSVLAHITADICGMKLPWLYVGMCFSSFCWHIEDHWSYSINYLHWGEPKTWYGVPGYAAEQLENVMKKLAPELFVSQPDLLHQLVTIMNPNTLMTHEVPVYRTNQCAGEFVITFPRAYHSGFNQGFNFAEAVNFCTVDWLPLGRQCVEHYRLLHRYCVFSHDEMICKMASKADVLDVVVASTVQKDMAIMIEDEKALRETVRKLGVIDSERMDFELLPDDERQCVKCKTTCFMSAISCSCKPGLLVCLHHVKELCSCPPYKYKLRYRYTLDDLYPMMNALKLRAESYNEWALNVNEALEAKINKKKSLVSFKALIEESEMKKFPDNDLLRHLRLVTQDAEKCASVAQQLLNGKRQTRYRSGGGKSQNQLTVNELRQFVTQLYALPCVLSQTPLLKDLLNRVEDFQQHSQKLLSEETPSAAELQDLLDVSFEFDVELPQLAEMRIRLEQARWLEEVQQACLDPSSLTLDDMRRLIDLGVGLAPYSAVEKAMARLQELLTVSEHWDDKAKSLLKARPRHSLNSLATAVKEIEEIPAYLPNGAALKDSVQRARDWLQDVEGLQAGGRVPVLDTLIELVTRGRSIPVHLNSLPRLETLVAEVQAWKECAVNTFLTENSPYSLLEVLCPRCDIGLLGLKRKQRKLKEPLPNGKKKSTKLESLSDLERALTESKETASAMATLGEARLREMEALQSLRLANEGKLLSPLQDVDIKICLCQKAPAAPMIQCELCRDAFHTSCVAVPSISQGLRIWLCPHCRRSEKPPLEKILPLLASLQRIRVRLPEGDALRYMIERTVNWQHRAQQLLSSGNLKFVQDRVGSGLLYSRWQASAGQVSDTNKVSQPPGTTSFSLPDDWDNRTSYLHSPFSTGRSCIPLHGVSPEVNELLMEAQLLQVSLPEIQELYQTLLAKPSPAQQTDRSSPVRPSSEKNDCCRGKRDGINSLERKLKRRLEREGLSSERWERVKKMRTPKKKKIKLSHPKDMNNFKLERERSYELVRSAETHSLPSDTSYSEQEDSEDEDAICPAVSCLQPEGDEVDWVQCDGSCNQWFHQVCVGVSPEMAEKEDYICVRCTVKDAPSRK

Row | SMILES | Potency | activity change, negative = inhibition
1 | CCOC(=O)c1ccc(NC(=O)c2oc3ccc4c(c3c2C)C(=O)CC(C)(CC)O4)cc1 (centres undefined) | inconclusive: 12.6 µM [inhibitor, partial curve, poor fit] | –
2 | Cc1noc(C)c1S(=O)(=O)N1CCC(c2noc(-c3cccnc3)n2)C1 (centres undefined) | – | inactive: -4.37%
3 | CCN(CC)C(=O)NCc1cccnc1N1CCN(c2ccccn2)CC1 | inconclusive: 31.6 µM [inhibitor, partial curve, poor fit] | –
4 | O=C1[C@H]2CN(Cc3ccc(Cl)cc3)C[C@H]2C(=O)N1CCc1ccccc1 | – | inactive: -19.3%
5 | CCOC(=O)c1ccc(Nc2c(-c3ccc(O)cc3)nc3nc[nH]n23)cc1 | inconclusive: 17.8 µM [inhibitor, partial curve, poor fit] | –
6 | Cc1c(CC(=O)NCC(=O)O)c(=O)oc2cc3c(cc12)CCC(C)(C)O3 | inconclusive: 25.1 µM [inhibitor, partial curve, poor fit] | –
7 | O=C(Nc1cc(=O)[nH]c2nc(C(F)(F)F)nn12)c1ccc(Cl)cc1Cl | – | inactive: -1.12%
8 | Cc1ccc(Nc2c(-c3ccc(C)cc3)nc3cnccn23)cc1 | inconclusive: 28.2 µM [inhibitor, partial curve, poor fit] | –
9 | COc1ccc(C(=O)Nc2cccc3ncccc23)cc1 | inconclusive: 39.8 µM [inhibitor, single point] | –
10 | Cc1[nH]cnc1CN1CCNc2cc(-c3ccccc3)ncc2C1 | active: 31.6 µM | –
11 | CCCn1c(=O)[nH]c(=O)c2c(C(=O)O)cc(C(C)C)nc21 | inconclusive: 25.1 µM [inhibitor, partial curve, poor fit] | –
12 | CNC(=O)[C@@H]1CN(S(=O)(=O)c2ccc(F)c(C)c2)C[C@H]1C1CCN(C)CC1 | active: 22.4 µM | –
13 | CC(=O)C1C(=O)CC(c2ccc(Cl)cc2)CC1=O (centres undefined) | inconclusive: 17.8 µM [inhibitor, single point] | –
14 | Clc1ccc(CCNc2ncnc3c2c(-c2ccccc2)cn3-c2ccccc2)cc1 | inconclusive: 22.4 µM [inhibitor, partial curve, poor fit] | –
15 | CSCc1ccc(C(=O)NCc2ccccc2)o1 | – | inactive: 0.661%
16 | CN(C)S(=O)(=O)N1C[C@@H]2CC[C@H](C1)N(Cc1ccccc1C#N)C2 | inconclusive: 35.5 µM [inhibitor, partial curve, poor fit] | –
17 | Cc1n[nH]c(C)c1CNC(=O)c1ccc(N2CC3CC(C2)[C@H]2CCCC(=O)N2C3)nc1 (some centres undefined) | inconclusive: 22.4 µM [inhibitor, single point] | –
18 | COc1ccccc1-c1cc2c(ccn2C)c(C(=O)NCc2c(C)cc(C)[nH]c2=O)n1 | active: 35.5 µM | –
19 | Cc1oc(-c2cccs2)nc1CC(=O)N1CCOC(C)C1 (centres undefined) | inconclusive: 25.1 µM [inhibitor, partial curve, poor fit] | –
20 | CCCn1c(=O)n(-c2ccccc2)c(=O)c2sc3ccccc3c21 | inconclusive: 28.2 µM [inhibitor, partial curve, poor fit] | –
21 | N#Cc1cccc(/C=C2\CCOc3cc(Br)ccc3C2=O)c1 | – | inactive: 14.9%
22 | CC1C/C(=N/NC(=S)NC2CCCCC2)CC(C)(C)C1 (centres undefined) | – | inactive: 17.3%

Row | SMILES | Potency | activity change, negative = inhibition
23 | COc1cccc(CC(=O)NC2CCN(c3cc(-c4cccs4)[nH]n3)C2)c1 (centres undefined) | active: 28.2 µM | –
24 | CCCCCCn1nc(C(=O)Nc2cccc(S(=O)(=O)N3CCOCC3)c2)c2ccccc2c1=O | inconclusive: 39.8 µM [inhibitor, single point] | –
25 | COc1cc(C(=O)/C=C/c2cccs2)ccc1OCC(=O)O | – | inactive: -10%
26 | C1CCC(COCCc2noc(C3CNC3)n2)C1 | inconclusive: 22.4 µM [inhibitor, single point] | –
27 | COC(=O)c1[nH]c2ccccc2c1Sc1ccccc1 | inconclusive: 25.1 µM [inhibitor, single point] | –
28 | COc1cc(-c2onc(C)c2C(=O)NCCc2ccc(F)cc2)cc(OC)c1OC | active: 28.2 µM | –
29 | Cc1cccc(Nc2ccc3ccccc3c2)c1 | inconclusive: 28.2 µM [inhibitor, partial curve, poor fit] | –
30 | Cc1noc2c(-c3cccnc3NCc3cnccn3)cc(-c3ccccc3)nc12 | active: 31.6 µM | –
31 | CCCN(CC1CCOC1)C(=O)Nc1ccc(CC)cc1 (centres undefined) | – | inactive: 3.11%
32 | CN1CC2(CCN(Cc3ccccc3C#N)CC2)CC1C(=O)N1CCOCC1 (centres undefined) | inconclusive: 31.6 µM [inhibitor, single point] | –
33 | CCC1=C(C(=O)OC)C(c2ccccc2C)N2C(CC(=O)N3CCCC3)=CSC2=N1 (centres undefined) | inconclusive: 31.6 µM [inhibitor, partial curve, poor fit] | –
34 | O=C1Nc2ccc(-c3ccccc3F)cc2C(=O)N2CCN(C(=O)c3cccnc3)C[C@H]12 | inconclusive: 31.6 µM [inhibitor, single point] | –
35 | COc1ccc(CC(=O)NC2CCN(c3cc(-c4ccccc4)[nH]n3)CC2)cc1 | – | inactive: 0.366%
36 | COc1cccc(N2CCN(C(=O)C3CCC(CNS(=O)(=O)c4ccc(Br)s4)CC3)CC2)c1 (centres undefined) | – | inconclusive: -33.1% [inhibitor]
37 | COc1ccccc1-c1cnc(Nc2cccnc2OC)c2c1CCO2 | active: 35.5 µM | –
38 | COCCCNC(=O)Cn1c(=O)n(-c2ccc(C)cc2)c(=O)c2c1c1cc(C)ccc1n2C | inconclusive: 2.51 µM [inhibitor, partial curve, poor fit] | –
39 | CCc1c(C)cc(C(=O)N[C@@H]2[C@@H](Cc3ccccc3)[C@H]3OCC[C@@H]23)c(=O)n1C | active: 28.2 µM | –
40 | CC(C)(C)c1cc(C(C)(C)C)c2oc(=O)c(-c3nc4ccccc4[nH]3)cc2c1 | inconclusive: 3.55 µM [inhibitor, full curve, poor fit] | –
41 | O=C(O)c1cc(-c2ccc(Cl)s2)nc2c(Cl)cccc12 | inconclusive: 28.2 µM [inhibitor, partial curve, poor fit] | –
42 | CCN(CC)C(=O)c1cc2c(=O)n3cccc(C)c3nc2s1 | inconclusive: 20 µM [inhibitor, partial curve, poor fit] | –
43 | O=C(CSc1nc(=O)n(Cc2ccncc2)c2c1CCC2)N1CCCC1 | – | inactive: 14.4%
44 | O=C(c1cc(C2CC2)[nH]n1)N1CCc2c(nc(-c3ccccn3)[nH]c2=O)C1 | inconclusive: 7.08 µM [inhibitor, full curve, poor fit] | –
